Experimental data as given in the supplement of paper PMC3334620.
In all, about 33,000 sequences were measured (“E-score (-0.5 to 0.5)”: median about -0.021, highest 2% from about 0.32 on). The list shows a part of the results.

Each sequence was assayed against T1, Zap1 (UniProt P47043) (assay: PBM E-score (8-mer binding enrichment) (E-score (-0.5 to 0.5)); higher = stronger / more preferred TF binding; most listed sequences are background and not binding sites). Conditions: protein concentration: 200 nM; construct: GST-full length.
T1 sequence: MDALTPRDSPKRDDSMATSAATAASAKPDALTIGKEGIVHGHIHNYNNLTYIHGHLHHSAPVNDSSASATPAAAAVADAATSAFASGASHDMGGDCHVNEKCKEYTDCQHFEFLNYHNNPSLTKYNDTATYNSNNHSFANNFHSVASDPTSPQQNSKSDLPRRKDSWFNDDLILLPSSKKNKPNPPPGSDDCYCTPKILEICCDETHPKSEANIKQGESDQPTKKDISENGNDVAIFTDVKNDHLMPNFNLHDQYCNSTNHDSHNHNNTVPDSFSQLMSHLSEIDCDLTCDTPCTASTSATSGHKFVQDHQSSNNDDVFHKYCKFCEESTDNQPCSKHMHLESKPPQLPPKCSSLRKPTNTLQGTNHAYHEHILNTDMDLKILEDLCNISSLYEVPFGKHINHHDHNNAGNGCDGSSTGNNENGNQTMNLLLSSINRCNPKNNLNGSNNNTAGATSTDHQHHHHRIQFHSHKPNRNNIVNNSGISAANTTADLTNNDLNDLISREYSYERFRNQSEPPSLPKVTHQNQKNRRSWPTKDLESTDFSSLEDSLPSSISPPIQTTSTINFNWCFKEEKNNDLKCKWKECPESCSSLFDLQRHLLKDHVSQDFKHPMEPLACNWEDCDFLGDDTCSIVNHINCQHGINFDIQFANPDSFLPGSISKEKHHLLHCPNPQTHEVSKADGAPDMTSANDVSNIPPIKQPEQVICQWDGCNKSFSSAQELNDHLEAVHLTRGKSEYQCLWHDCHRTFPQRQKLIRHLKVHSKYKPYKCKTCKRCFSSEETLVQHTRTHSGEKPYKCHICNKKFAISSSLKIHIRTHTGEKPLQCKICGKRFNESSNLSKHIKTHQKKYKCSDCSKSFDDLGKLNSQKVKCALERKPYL
Procedure, shortened: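 For each ungapped eight-base word taken together with its reverse complement, the Universal PBM Analysis Suite assigned an E-score. Binding data came from GST-tagged yeast transcription factors, applied at about 100-200 nM, on universal all-10-mer Agilent arrays made double-stranded by primer extension. Fluorescent anti-GST marked bound protein, and scans were normalised with masliner.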

Row | Sequence | PBM E-score
1 | CAAATAAA | 0.221
2 | GAAATCGC | -0.192
3 | ACGCGCAG | -0.233
4 | AACTGTTC | -0.0321
5 | CCCCCTAG | -0.343
6 | AATCCAGC | -0.108
7 | CAATTCGG | -0.0532
8 | CTGGAGAA | -0.217
9 | GATACCCC | 0.37
10 | ACTCATCT | -0.014
11 | AGCCCCAA | -0.00322
12 | CCTATGTC | 0.0145
13 | CCACACTA | 0.0596
14 | TCATGCAA | 0.118
15 | CTGAATAC | 0.12
16 | CAGAAAAG | 0.0119
17 | AAATCTCC | -0.19
18 | AAGTCGAT | -0.271
19 | CAGATAGG | -0.0378
20 | AGCGATAC | 0.00398
21 | AACTCACT | -0.173
22 | TCCCCGCA | -0.18
23 | CGGCTAGC | -0.191
24 | GGCCAAAC | -0.0782
25 | AGTCTTGG | -0.117

Row | Sequence | PBM E-score
26 | CATTGGCA | -0.0796
27 | AAGAACAT | 0.0707
28 | CAAAGTTG | -0.0875
29 | CACATCGA | -0.133
30 | AAGGGGAT | 0.142
31 | ATATTCGC | -0.0166
32 | GTCCGAGA | 0.0141
33 | ATTGGATC | -0.00311
34 | CGGGAGGC | -0.261
35 | ACTAATCC | 0.0159
36 | TGGTACAA | 0.146
37 | TATTATGA | 0.00643
38 | GCCTGCCC | -0.443
39 | AACCGCGG | 0.374
40 | CTGAGTTA | 0.0976
41 | AAGCGCCT | -0.166
42 | GAGGGCCC | -0.192
43 | CACTTTGA | -0.0149
44 | CGAATTTA | 0.112
45 | ACCCCTGC | 0.167
46 | GCAATGTA | 0.0851
47 | GCATTGGC | -0.267
48 | TAGGCATA | -0.172
49 | AGAGCGAT | -0.308
50 | ATCTCAGG | -0.162

Row | Sequence | PBM E-score
51 | AGCCAACA | -0.0528
52 | ACCAAAGC | 0.0537
53 | AGGGTGGG | 0.334
54 | ACGCGTGC | -0.035
55 | CATGTTAG | -0.0933
56 | ATGATTTG | 0.0279
57 | AGCCGGCA | -0.233
58 | GCACGTCA | -0.283
59 | CCTACAAC | 0.25
60 | GCCACACC | -0.11
61 | ATCACGTA | -0.133
62 | ATTTGTAG | 0.00204
63 | AAATTGGC | -0.0732
64 | AACGGCTG | -0.057
65 | CCATACAC | 0.159
66 | AGCGCGAG | -0.0403
67 | AAGCCACG | -0.0809
68 | CGAGATAG | -0.236
69 | CTTAAAAG | -0.00047
70 | TAATCCGA | -0.0485
71 | AAGTTAGA | 0.132
72 | ATTCGCAG | 0.021
73 | ACAAGGAG | 0.0819
74 | ACAAGATG | -0.0751
75 | CCCTCCAA | 0.102

Row | Sequence | PBM E-score
76 | AAGTGCAT | -0.11
77 | ACTATCTG | -0.0537
78 | AGGCTCAT | -0.0974
79 | ACCAGAAA | 0.158
80 | TCGAAGAA | -0.0842
81 | ACAGAAAT | 0.152
82 | CCCAGTAA | 0.192
83 | ACCTGTAA | 0.187
84 | CTTTATGC | 0.074
85 | GCGTTAAC | 0.255
86 | ACATCGAG | -0.0516
87 | TTGTAAAA | 0.147
88 | AGCGAATC | -0.083
89 | GATACTCC | -0.263
90 | GCCTAGAC | -0.255
91 | CAGTATAA | 0.197
92 | AAACAGTC | -0.124
93 | TCGTTTCA | -0.0147
94 | CGAGTCGA | 0.116
95 | ACATTGCC | -0.177
96 | CGGGAGAG | -0.165
97 | CTTGACGA | -0.214
98 | GATACCAA | 0.118
99 | AATAATAG | -0.044
100 | CTCGCAAC | 0.137

Row | Sequence | PBM E-score
101 | GCCTACGC | -0.221
102 | CATCGCGC | -0.0176
103 | AAAGTATG | -0.0746
104 | ACGTGGTA | -0.0169
105 | CAAAAAAG | 0.275
106 | ATTAATCC | -0.0662
107 | CCCACGCA | 0.0623
108 | TCTGCTAA | -0.16
109 | ACGTGGTC | 0.0404
110 | AGTTAATG | -0.0321
111 | ACTGGATA | 0.00183
112 | CTTGCTAC | 0.0655
113 | ACACTTAA | 0.0631
114 | AACCCCGT | 0.277
115 | ATGTAGGG | -0.0619
116 | CCGACGTC | -0.296
117 | TAGAGATA | 0.111
118 | CTATTCTC | -0.162
119 | CATACTAA | 0.218
120 | CTGGGCAC | -0.158
121 | ACTGATAA | 0.127
122 | ACTCCTCT | -0.246
123 | AAGGAAAT | 0.0204
124 | CGGCTTAC | -0.12
125 | ATCTGTCC | -0.318

Row | Sequence | PBM E-score
126 | GTGCCGAA | 0.0261
127 | AGGCAGGA | -0.3
128 | CGCAGCAG | -0.0685
129 | AAGAACAG | 0.147
130 | CGAGAGTC | -0.103
131 | AGTTGTAC | 0.146
132 | CAAAGAAG | 0.0538
133 | CCATGGAG | 0.115
134 | GACAGCAC | 0.0337
135 | AGCGGGTC | -0.148
136 | GACAGAAA | 0.17
137 | CTCACGAA | -0.00515
138 | GCACATTA | -0.0876
139 | AACTCGCA | -0.0412
140 | AGGAGGGG | -0.0628
141 | AAATTGAA | 0.0405
142 | ATATGGGA | 0.0061
143 | CCTAGCCA | -0.0693
144 | AAGAGAAC | 0.0481
145 | ACCACTAA | 0.281
146 | ACGACAAT | -0.00907
147 | AAGGTGGT | 0.28
148 | CGAACAAG | 0.00111
149 | ATTAGAGA | -0.0494
150 | GCATGATA | -0.0633

Row | Sequence | PBM E-score
151 | CCAGTCAG | -0.133
152 | AGTGTGTC | -0.147
153 | ACACCCGT | 0.201
154 | GTCCGAAA | 0.187
155 | CGCAAGGA | -0.00607
156 | GGGCTATA | -0.087
157 | CGCGGAGC | -0.244
158 | GGTTTGAA | 0.201
159 | CATAGTGC | -0.16
160 | AAGTTAGC | 0.031
161 | ATATTCCG | 0.0776
162 | TGTGCACA | -0.0575
163 | ATACGACG | -0.0416
164 | CAACGTAG | -0.0349
165 | CCGTTAGA | 0.07
166 | GCAGACGA | -0.192
167 | GCGGCACC | 0.0425
168 | CTGACCCA | -0.11
169 | CGCTCTTA | -0.0573
170 | CCCGTTGC | -0.154
171 | GCTGCGAC | -0.141
172 | GCAAGTTA | 0.0383
